According to patent publication US20240424005A1, “DIAGNOSING, MONITORING AND TREATING NEUROLOGICAL DISEASE WITH PS[…] DERIVATIVES AND mRNA MEASUREMENTS” (NOVA MENTIS LIFE SCIENCE CORP., priority 2021, published 2024):

Test system: red blood cells
Assay: Toxicity and oxidative stress in red blood cells

## CN(C)CCc1c[nH]c2cccc(O)c12 [psilocin]
  effect against oxidative stress in red blood cells: protective effect against oxidative stress
